This note sets out measurements from a collection of fitness landscapes (doi:10.1126/science.1257360).

Some of the results follow.

To fix the notation:
B1: PhoQ; a variant is named by its letters at X, in order, P23837 (parent)
chain: MKKLLRLFFPLSLRVRFLLATAAVVLVLSLAYGMVALIGYSVSFDKTTFRLLRGESNLFYTLAKWENNKLHVELPENIDKQSPTMTLIYDENGQLLWAQRDVPWLMKMIQPDWLKSNGFHEIEADVNDTSLLLSGDHSIQQQLQEVREDDDDAEMTHSVAVNVYPATSRMPKLTIVVVDTIPVELKSSYMVWSWFIYVLSANLLLVIPLLWVAAWWSLRPIEALAKEVRELEEHNRELLNPATTRELTSLVRNLNRLLKSERERYDKYRTTLTDLTHSLKTPLXXLQXXLRSLRSEKMSVSDAEPVMLEQISRISQQIGYYLHRASMRGGTLLSRELHPVAPLLDNLTSALNKVYQRKGVNISLDISPEISFVGEQNDFVEVMGNVLDNACKYCLEFVEISARQTDEHLYIVVEDDGPGIPLSKREVIFDRGQRVDTLRPGQGVGLAVAREITEQYEGKIVAGESMLGGARMEVIFGRQHSAPKDE

Variants of B1 are the subject of the assay. Kind of assay: enrichment ratio after two sorts for PhoP signalling (ratio (wild type AVST 3.29)); higher = more functional. The settings on record: with PhoP (E. coli).
For the variant FDTS, the enrichment ratio is not above 0.25.

For the variant LWCR, the enrichment ratio was not above 0.25. Consider WECH, for which the enrichment ratio was not above 0.25. With TYRD the figure was not above 0.25. Regarding FLSL, the enrichment ratio was not above 0.25. Take ATAN: the enrichment ratio stood at 29.1. Under LDQK stands not above 0.25; under AYLR, not above 0.25. KIQG: the enrichment ratio was not above 0.25. Under FKHI stands not above 0.25; under NHNN, not above 0.25; under VMCY, not above 0.25. Consider FYEA, for which the enrichment ratio is not above 0.25. On to NNII, for which the enrichment ratio was not above 0.25. In the case of DLFN, the enrichment ratio is not above 0.25. For GQIV, the enrichment ratio was 0.651.

Turning to EMSY, the enrichment ratio is not above 0.25.

For the variant TFMF, the enrichment ratio was not above 0.25.

For the variant NIFR, the enrichment ratio was not above 0.25. As for RTYW, the enrichment ratio was not above 0.25. As for YFMI, the enrichment ratio is not above 0.25. With AAIA the figure was not above 0.25; with KMGA, not above 0.25.

As for AQHF, the enrichment ratio is not above 0.25. Turning to WFST, the enrichment ratio was not above 0.25. Turning to QNVA, the enrichment ratio was not above 0.25. In the case of GYKK, the enrichment ratio was not above 0.25. With TPIQ the figure was not above 0.25. In the case of VPWE, the enrichment ratio is not above 0.25. As for TDQY, the enrichment ratio was determined as 0.873. As for GQAP, the enrichment ratio was not above 0.25. For HVRF, the enrichment ratio was not above 0.25. With DYAH the figure was not above 0.25.

For KYKE, the enrichment ratio is not above 0.25. For the variant FPRR, the enrichment ratio was not above 0.25. With HSVR, the enrichment ratio was not above 0.25.

PAPG: the enrichment ratio worked out at 0.49.

Turning to TYIN, the enrichment ratio is not above 0.25.

With ATSC, the enrichment ratio was 3.83.

As to NAGE, the enrichment ratio is not above 0.25. Consider SLIT, for which the enrichment ratio was not above 0.25. For the variant DLGG, the enrichment ratio is not above 0.25. As to YPKS, the enrichment ratio was not above 0.25. In the case of LRYQ, the enrichment ratio was not above 0.25. On to FCGQ, for which the enrichment ratio is not above 0.25.

On to SVVG, for which the enrichment ratio worked out at 6.29.

On to RLNI, for which the enrichment ratio is not above 0.25. In the case of KPIS, the enrichment ratio was not above 0.25. On to RSKN, for which the enrichment ratio was not above 0.25. Under FPWE stands not above 0.25. With YPCD the figure was not above 0.25. As for RTWH, the enrichment ratio was not above 0.25. As for EENC, the enrichment ratio was not above 0.25. Take QIMT: the enrichment ratio is not above 0.25.

As to PYAR, the enrichment ratio was not above 0.25. Under PQDF stands not above 0.25; under QPLA, not above 0.25. As to NLSV, the enrichment ratio was not above 0.25.

In the case of DKKV, the enrichment ratio is not above 0.25. As to FLSW, the enrichment ratio was not above 0.25. As to ACTN, the enrichment ratio was 4.2.

For the variant GNQV, the enrichment ratio is not above 0.25.

As to FRDQ, the enrichment ratio was not above 0.25. Take HCPP: the enrichment ratio is not above 0.25. With QHHF, the enrichment ratio was not above 0.25. Under NMQW stands not above 0.25; under KSAS, not above 0.25.

For the variant MTWG, the enrichment ratio is not above 0.25. For DPHV, the enrichment ratio was not above 0.25. With MNCY, the enrichment ratio was not above 0.25.

For ELEM, the enrichment ratio is not above 0.25. As for FAIQ, the enrichment ratio is not above 0.25. Under FWYA stands not above 0.25; under TFAC, 1.41; under HVYF, not above 0.25. Under YSHM stands not above 0.25; under FAQD, not above 0.25; under FWIQ, not above 0.25. In the case of KTHD, the enrichment ratio is not above 0.25. As to QICA, the enrichment ratio was not above 0.25. On to VVTI, for which the enrichment ratio stood at 0.423. Consider GWPT, for which the enrichment ratio is not above 0.25. GPIP: the enrichment ratio is not above 0.25. VKCF: the enrichment ratio was not above 0.25. Regarding MRPY, the enrichment ratio is not above 0.25.

For the variant HQPQ, the enrichment ratio was not above 0.25. Consider YFAG, for which the enrichment ratio is not above 0.25. Under IFAA stands not above 0.25; under NGLD, not above 0.25.

For the variant VKRW, the enrichment ratio is not above 0.25.

YWTC: the enrichment ratio was not above 0.25. On to RYTR, for which the enrichment ratio is not above 0.25. In the case of TENE, the enrichment ratio was 8.3. Take MMIC: the enrichment ratio was not above 0.25.

As to EAIQ, the enrichment ratio was not above 0.25. ATNS: the enrichment ratio was not above 0.25. Consider WIKL, for which the enrichment ratio was not above 0.25. In the case of FWSR, the enrichment ratio was not above 0.25. Take LPGR: the enrichment ratio was not above 0.25. Regarding DAIL, the enrichment ratio was not above 0.25. For the variant PWLE, the enrichment ratio was not above 0.25. With SLHN, the enrichment ratio was not above 0.25. Turning to TKST, the enrichment ratio was determined as 15.4. Take GLKI: the enrichment ratio was not above 0.25. In the case of QSEG, the enrichment ratio is not above 0.25. For the variant WGAS, the enrichment ratio was not above 0.25. As to VKCE, the enrichment ratio is not above 0.25. In the case of QKSW, the enrichment ratio was not above 0.25. As for TMHP, the enrichment ratio was not above 0.25. Turning to TKLE, the enrichment ratio came to 12.7. Take IMSA: the enrichment ratio is not above 0.25. Regarding HHMN, the enrichment ratio is not above 0.25. For the variant WITC, the enrichment ratio was not above 0.25.

Take NAGF: the enrichment ratio was not above 0.25. Take DDFA: the enrichment ratio is not above 0.25. With ECLV the figure was not above 0.25. Turning to KVGV, the enrichment ratio is not above 0.25. QMVW: the enrichment ratio is not above 0.25. For FFMM, the enrichment ratio is not above 0.25. For the variant MYLV, the enrichment ratio turned out to be 0.307. In the case of HRRW, the enrichment ratio is not above 0.25. RQCN: the enrichment ratio was not above 0.25.

With VNFI, the enrichment ratio is not above 0.25. On to TIRN, for which the enrichment ratio is not above 0.25. Take MYQH: the enrichment ratio was not above 0.25.

In the case of LHDC, the enrichment ratio was not above 0.25. In the case of AGPC, the enrichment ratio is not above 0.25. Regarding NMNA, the enrichment ratio is not above 0.25. With KMNK, the enrichment ratio was not above 0.25. As to SEYS, the enrichment ratio turned out to be 2.4. With FYNT, the enrichment ratio was not above 0.25. With FEFH, the enrichment ratio is not above 0.25.

Take DKRC: the enrichment ratio is not above 0.25.

With ADHV, the enrichment ratio is not above 0.25. As for DYRD, the enrichment ratio is not above 0.25. Take VGCV: the enrichment ratio was found to be 2.53.

As to FHNH, the enrichment ratio was not above 0.25. For DYPT, the enrichment ratio is not above 0.25.

As for FMTH, the enrichment ratio was not above 0.25.

Take QRCN: the enrichment ratio is not above 0.25.

For the variant WQGH, the enrichment ratio was not above 0.25. In the case of ESLD, the enrichment ratio was not above 0.25. Take LTNW: the enrichment ratio is not above 0.25. Regarding NSWE, the enrichment ratio is not above 0.25. ATPP: the enrichment ratio was not above 0.25. On to QTAN, for which the enrichment ratio was not above 0.25. RHDV: the enrichment ratio is not above 0.25.

As to WTFC, the enrichment ratio is not above 0.25. With PPHQ the figure was not above 0.25; with IGKH, not above 0.25; with MIVD, not above 0.25. LKTC: the enrichment ratio was not above 0.25.

As to WHYH, the enrichment ratio is not above 0.25.
